{"source": "the supplement of paper PMC10126150", "note": "Sequences with one replicate were seen in a single cluster, so their values are uncertain."}
{"test_system": "ATP", "test": "switch fluorescence ratio, 500 uM ATP over buffer (Cy3 cluster intensity, sum of 5 cycles each) (fold (ratio)); higher = stronger signal-on switching upon ATP binding; sequences stand for … in TCGTCGGCAGCGTCAGATGTGTATAAGAGACAGTTTTTTTTTTTTTTTTTTTTTTTTT…TC", "details": "aptamer strand: ATP DNA aptamer (quencher-CACCTGGGGGAGTATTGCGGAGGAAGG + anchor), 100 nM annealed; ATP concentration: 500 uM; one replicate", "how_it_was_run": "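Exposure to 500 uM ATP lasted 15 min at 22 °C before imaging, and a selection-buffer image was taken beforehand, for Cy3-labelled switching-strand clusters on a modified Illumina MiSeq flow-cell annealed to 100 nM quencher-labelled ATP aptamer. Five buffer/ATP cycles were run with NaOH stripping and re-annealing between them. The fluorescence ratio per cluster is summed target-cycle over summed buffer-cycle Cy3 intensity, averaged per switch-domain sequence. Clusters outside 100-1000 RFU were excluded.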"}
{"sequence": "GTGATAATA", "switch fluorescence ratio": 1.02}
{"sequence": "GTGATAGACG", "switch fluorescence ratio": 0.979}
{"sequence": "GTGATCATCT", "switch fluorescence ratio": 1.01}
{"sequence": "GTGATTATCC", "switch fluorescence ratio": 1.02}
{"sequence": "GTGATTCAGA", "switch fluorescence ratio": 0.995}
{"sequence": "GTGATTGCGA", "switch fluorescence ratio": 0.969}
{"sequence": "GTGATTGGTA", "switch fluorescence ratio": 0.982}
{"sequence": "GTGATTTCAG", "switch fluorescence ratio": 1.02}
{"sequence": "GTGCACCGAT", "switch fluorescence ratio": 1.06}
{"sequence": "GTGCAGGATG", "switch fluorescence ratio": 1.05}
{"sequence": "GTGCATGGCG", "switch fluorescence ratio": 1.09}
{"sequence": "GTGCCCGTCC", "switch fluorescence ratio": 1}
{"sequence": "GTGCCCTTCT", "switch fluorescence ratio": 1.01}
{"sequence": "GTGCCTCAGG", "switch fluorescence ratio": 1.16}
{"sequence": "GTGCCTGGGG", "switch fluorescence ratio": 1.02}
{"sequence": "GTGCGCTAAA", "switch fluorescence ratio": 0.967}
{"sequence": "GTGCGGGCAA", "switch fluorescence ratio": 0.988}
{"sequence": "GTGCGGGCTA", "switch fluorescence ratio": 1.05}
{"sequence": "GTGCGGGGAG", "switch fluorescence ratio": 1.03}
{"sequence": "GTGCGGGGGG", "switch fluorescence ratio": 1.03}
{"sequence": "GTGCGGGTCT", "switch fluorescence ratio": 0.943}
{"sequence": "GTGCTAAGTA", "switch fluorescence ratio": 0.981}
{"sequence": "GTGCTAGATA", "switch fluorescence ratio": 0.993}
{"sequence": "GTGCTAGGCT", "switch fluorescence ratio": 0.986}
{"sequence": "GTGCTCACTT", "switch fluorescence ratio": 1.01}
{"sequence": "GTGCTGGCTG", "switch fluorescence ratio": 1}
{"sequence": "GTGCTGGGGT", "switch fluorescence ratio": 1.03}
{"sequence": "GTGCTGTCGT", "switch fluorescence ratio": 0.987}
{"sequence": "GTGGAACCGG", "switch fluorescence ratio": 1.01}
{"sequence": "GTGGACTCGT", "switch fluorescence ratio": 1.02}
{"sequence": "GTGGAGCGGA", "switch fluorescence ratio": 0.972}
{"sequence": "GTGGATCTCA", "switch fluorescence ratio": 0.967}
{"sequence": "GTGGATGGGT", "switch fluorescence ratio": 0.952}
{"sequence": "GTGGATTAGT", "switch fluorescence ratio": 0.952}
{"sequence": "GTGGCCAAGG", "switch fluorescence ratio": 1.04}
{"sequence": "GTGGGAGC", "switch fluorescence ratio": 1.1}
{"sequence": "GTGGGAGGCG", "switch fluorescence ratio": 0.987}
{"sequence": "GTGGGAGT", "switch fluorescence ratio": 1.05}
{"sequence": "GTGGGCGACT", "switch fluorescence ratio": 1.03}
{"sequence": "GTGGGGAAAC", "switch fluorescence ratio": 0.993}
{"sequence": "GTGGGGCAAC", "switch fluorescence ratio": 0.971}
{"sequence": "GTGGGGCAAG", "switch fluorescence ratio": 1.02}
{"sequence": "GTGGGGGATA", "switch fluorescence ratio": 1.07}
{"sequence": "GTGGGGTAAT", "switch fluorescence ratio": 0.953}
{"sequence": "GTGGGGTCAG", "switch fluorescence ratio": 0.947}
{"sequence": "GTGGGGTGGT", "switch fluorescence ratio": 0.993}
{"sequence": "GTGGGTAACA", "switch fluorescence ratio": 0.995}
{"sequence": "GTGGGTCTGA", "switch fluorescence ratio": 0.998}
{"sequence": "GTGGTAGAAC", "switch fluorescence ratio": 0.976}
{"sequence": "GTGGTCACTG", "switch fluorescence ratio": 1.06}
{"sequence": "GTGGTCATGG", "switch fluorescence ratio": 0.978}
{"sequence": "GTGGTCGCAG", "switch fluorescence ratio": 0.961}
{"sequence": "GTGGTGAGAT", "switch fluorescence ratio": 0.982}
{"sequence": "GTGGTGGAGA", "switch fluorescence ratio": 1.01}
{"sequence": "GTGGTGGTGT", "switch fluorescence ratio": 1.02}
{"sequence": "GTGGTGTCTA", "switch fluorescence ratio": 0.973}
{"sequence": "GTGGTTAAGT", "switch fluorescence ratio": 0.983}
{"sequence": "GTGGTTGCAT", "switch fluorescence ratio": 0.945}
{"sequence": "GTGTAAAAAG", "switch fluorescence ratio": 1.01}
{"sequence": "GTGTAAAACC", "switch fluorescence ratio": 0.98}
{"sequence": "GTGTAAATAT", "switch fluorescence ratio": 0.981}
{"sequence": "GTGTAAATCC", "switch fluorescence ratio": 0.978}
{"sequence": "GTGTAACTCC", "switch fluorescence ratio": 1.01}
{"sequence": "GTGTAACTTG", "switch fluorescence ratio": 1.02}
{"sequence": "GTGTAATAGA", "switch fluorescence ratio": 0.98}
{"sequence": "GTGTAATTCG", "switch fluorescence ratio": 0.982}
{"sequence": "GTGTACGGTT", "switch fluorescence ratio": 0.945}
{"sequence": "GTGTAGTAGC", "switch fluorescence ratio": 1.03}
{"sequence": "GTGTATGGC", "switch fluorescence ratio": 1.04}
{"sequence": "GTGTCAGGTA", "switch fluorescence ratio": 0.998}
{"sequence": "GTGTCGGCTT", "switch fluorescence ratio": 0.984}
{"sequence": "GTGTCTCGAA", "switch fluorescence ratio": 0.968}
{"sequence": "GTGTCTTCGG", "switch fluorescence ratio": 1.02}
{"sequence": "GTGTCTTTTA", "switch fluorescence ratio": 1.03}
{"sequence": "GTGTGAACG", "switch fluorescence ratio": 1}
{"sequence": "GTGTGGAGTG", "switch fluorescence ratio": 1.01}
{"sequence": "GTGTGGGGTC", "switch fluorescence ratio": 1.05}
{"sequence": "GTGTTACGT", "switch fluorescence ratio": 1.01}
{"sequence": "GTGTTAGAA", "switch fluorescence ratio": 0.935}
{"sequence": "GTGTTAGCCG", "switch fluorescence ratio": 1.05}
{"sequence": "GTGTTCTAGG", "switch fluorescence ratio": 0.975}
{"sequence": "GTGTTGGAAA", "switch fluorescence ratio": 1}
{"sequence": "GTGTTGTGGG", "switch fluorescence ratio": 0.993}
{"sequence": "GTGTTTATCC", "switch fluorescence ratio": 0.976}
{"sequence": "GTGTTTCATG", "switch fluorescence ratio": 1.02}
{"sequence": "GTTAAA", "switch fluorescence ratio": 0.948}
{"sequence": "GTTAAATCCT", "switch fluorescence ratio": 1.16}
{"sequence": "GTTAACTGAC", "switch fluorescence ratio": 1.06}
{"sequence": "GTTAAGCGTT", "switch fluorescence ratio": 1.01}
{"sequence": "GTTAATCAAC", "switch fluorescence ratio": 1.01}
{"sequence": "GTTAATTCTT", "switch fluorescence ratio": 0.995}
{"sequence": "GTTACATTGG", "switch fluorescence ratio": 1.01}
{"sequence": "GTTACCGGTC", "switch fluorescence ratio": 1.05}
{"sequence": "GTTACCTGGA", "switch fluorescence ratio": 1.14}
{"sequence": "GTTACGAC", "switch fluorescence ratio": 1.19}
{"sequence": "GTTACTTCTG", "switch fluorescence ratio": 0.983}
{"sequence": "GTTAGAAATT", "switch fluorescence ratio": 0.987}
{"sequence": "GTTAGAATTG", "switch fluorescence ratio": 0.97}
{"sequence": "GTTAGATAAT", "switch fluorescence ratio": 1.02}
{"sequence": "GTTAGCGAAT", "switch fluorescence ratio": 1}
{"sequence": "GTTAGCTAAC", "switch fluorescence ratio": 1.15}
{"sequence": "GTTAGGTGCT", "switch fluorescence ratio": 1.04}
{"sequence": "GTTAGTTCCT", "switch fluorescence ratio": 1}
{"sequence": "GTTATACAAG", "switch fluorescence ratio": 1.03}
{"sequence": "GTTATCCGGA", "switch fluorescence ratio": 1.02}
{"sequence": "GTTATGTGCT", "switch fluorescence ratio": 0.974}
{"sequence": "GTTATTGGCA", "switch fluorescence ratio": 1.04}
{"sequence": "GTTCACAATA", "switch fluorescence ratio": 1.1}
{"sequence": "GTTCATACA", "switch fluorescence ratio": 0.985}
{"sequence": "GTTCATGGGA", "switch fluorescence ratio": 0.999}
{"sequence": "GTTCATGGGT", "switch fluorescence ratio": 1.04}
{"sequence": "GTTCATTCGC", "switch fluorescence ratio": 1.53}
{"sequence": "GTTCATTGGC", "switch fluorescence ratio": 1.04}
{"sequence": "GTTCATTTTG", "switch fluorescence ratio": 1.04}
{"sequence": "GTTCCAACG", "switch fluorescence ratio": 1.04}
{"sequence": "GTTCCAAGTT", "switch fluorescence ratio": 0.977}
{"sequence": "GTTCCACTTA", "switch fluorescence ratio": 1.01}
{"sequence": "GTTCCCAGCG", "switch fluorescence ratio": 1.16}
{"sequence": "GTTCCGCCGG", "switch fluorescence ratio": 1.16}
{"sequence": "GTTCCTTTGC", "switch fluorescence ratio": 1.32}
{"sequence": "GTTCGCAGGA", "switch fluorescence ratio": 0.964}
{"sequence": "GTTCGCGTAA", "switch fluorescence ratio": 1.05}
{"sequence": "GTTCGGTGTT", "switch fluorescence ratio": 1.03}
{"sequence": "GTTCTATCGT", "switch fluorescence ratio": 1.03}
{"sequence": "GTTCTATTAT", "switch fluorescence ratio": 0.989}
{"sequence": "GTTCTCGATG", "switch fluorescence ratio": 0.946}
{"sequence": "GTTCTTCGGT", "switch fluorescence ratio": 0.982}
{"sequence": "GTTCTTTTTA", "switch fluorescence ratio": 0.964}
{"sequence": "GTTCTTTTTG", "switch fluorescence ratio": 0.992}
{"sequence": "GTTGACATGA", "switch fluorescence ratio": 0.978}
{"sequence": "GTTGACGTTC", "switch fluorescence ratio": 0.995}
{"sequence": "GTTGAGGATT", "switch fluorescence ratio": 1}
{"sequence": "GTTGATAGTG", "switch fluorescence ratio": 1.01}
{"sequence": "GTTGATCCTG", "switch fluorescence ratio": 0.949}
{"sequence": "GTTGCAATTG", "switch fluorescence ratio": 1}
{"sequence": "GTTGCAGTGA", "switch fluorescence ratio": 1.02}
{"sequence": "GTTGCATTCC", "switch fluorescence ratio": 1.52}
{"sequence": "GTTGCCCAGG", "switch fluorescence ratio": 3.14}
{"sequence": "GTTGCCCGCC", "switch fluorescence ratio": 1}
{"sequence": "GTTGCCTGAC", "switch fluorescence ratio": 1.36}
{"sequence": "GTTGCGCTCT", "switch fluorescence ratio": 1.09}
{"sequence": "GTTGCGTGGT", "switch fluorescence ratio": 1.02}
{"sequence": "GTTGCGTTAG", "switch fluorescence ratio": 0.982}
{"sequence": "GTTGGAGTG", "switch fluorescence ratio": 0.992}
{"sequence": "GTTGGCATAT", "switch fluorescence ratio": 1.06}
{"sequence": "GTTGGCGTGG", "switch fluorescence ratio": 1}
{"sequence": "GTTGGGTGC", "switch fluorescence ratio": 0.967}
{"sequence": "GTTGGTCCG", "switch fluorescence ratio": 1.05}
{"sequence": "GTTGTACAGG", "switch fluorescence ratio": 1.02}
{"sequence": "GTTGTAGGT", "switch fluorescence ratio": 0.982}
{"sequence": "GTTGTAGTGG", "switch fluorescence ratio": 1}
{"sequence": "GTTGTATACC", "switch fluorescence ratio": 0.971}
{"sequence": "GTTGTATTCG", "switch fluorescence ratio": 0.931}
{"sequence": "GTTGTCGCTG", "switch fluorescence ratio": 0.998}
